Results taken from the supplement of paper PMC10126150.
Values marked as one replicate rest on one cluster of the flow cell; about a third of the high ones do not repeat.
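Note: ATP exposure 15 min at 22 °C before imaging.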

The sequences below were run on ATP (assay: switch fluorescence ratio, 500 uM ATP over buffer (Cy3 cluster intensity, sum of 5 cycles each) (fold (ratio)); higher = stronger signal-on switching upon ATP binding; sequences stand for … in TCGTCGGCAGCGTCAGATGTGTATAAGAGACAGTTTTTTTTTTTTTTTTTTTTTTTTT…TC). Details: aptamer strand: ATP DNA aptamer (quencher-CACCTGGGGGAGTATTGCGGAGGAAGG + anchor), 100 nM annealed; ATP concentration: 500 uM; one replicate.
How it was run: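 Clusters carrying Cy3-labelled switching strands on a modified Illumina MiSeq flow-cell were annealed to 100 nM quencher-labelled ATP aptamer and imaged in selection buffer. They were imaged again after 15 min with 500 uM ATP at 22 °C, over five buffer/ATP cycles with NaOH stripping and re-annealing in between. For each cluster, the fluorescence ratio is the summed Cy3 intensity of the target cycles divided by that of the buffer cycles, averaged per switch-domain sequence. Clusters outside 100-1000 RFU were left out.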
GCTGGTAAGT gave a switch fluorescence ratio of 0.991. For TTTACGCGTT, the switch fluorescence ratio was 1.03. TACACATCCG showed a switch fluorescence ratio of 1.08. TTCTGAGAGA was tested, and the switch fluorescence ratio was 1.03. TTTGCGAGAT showed a switch fluorescence ratio of 0.987. Sequence TGATTTCGTC has a switch fluorescence ratio of 0.991. Sequence AGTGGGACGA has a switch fluorescence ratio of 1.04. Sequence AACTAGGACT has a switch fluorescence ratio of 1.03. GGGTGATAGC was tested, and the switch fluorescence ratio was 0.949. With CATGCGACTT the switch fluorescence ratio was 1.02. Sequence TTACGATTGT has a switch fluorescence ratio of 1.05. For TCCTGTCG, the switch fluorescence ratio was 1.3. For GCAAGAGCAG, the switch fluorescence ratio was 1.02. CAGTATGTTA showed a switch fluorescence ratio of 1.02. Work on CGGCGATTGT yielded a switch fluorescence ratio of 0.968. TAACAAGTGG gave a switch fluorescence ratio of 2.24. Sequence ACTGGGGCAC has a switch fluorescence ratio of 0.998. Sequence AACAAACTCG has a switch fluorescence ratio of 1.29. In the case of TTCCCTCACG, the switch fluorescence ratio is reported as 1.08. Sequence GCCGAATCTT has a switch fluorescence ratio of 0.99. GCTAAAGAAT showed a switch fluorescence ratio of 1.01. ACTACCTCG gave a switch fluorescence ratio of 1.13. ATCCGCTCGA showed a switch fluorescence ratio of 1.64. GAGCCGGGA showed a switch fluorescence ratio of 1.04. Sequence CGATTATGTC has a switch fluorescence ratio of 0.961. GTATGTTTTT gave a switch fluorescence ratio of 0.979. GGGTAGATTG showed a switch fluorescence ratio of 0.983. For TATAGTTGGT, the switch fluorescence ratio was 0.935. For TGAGTACTGT, the switch fluorescence ratio was 1. With CGGCAGATAG the switch fluorescence ratio was 1.16. With ACACCAAAAG the switch fluorescence ratio was 0.953. Work on TAAACGATC yielded a switch fluorescence ratio of 0.978. Sequence AGAGCGGAAA has a switch fluorescence ratio of 1.01. CCGGTGACAG was tested, and the switch fluorescence ratio was 1.04. GCCGTCCTGG gave a switch fluorescence ratio of 1.04. TGCTTGATCG showed a switch fluorescence ratio of 0.978. TTGAGCTCAT gave a switch fluorescence ratio of 1.02. For CCCATGCAT, the switch fluorescence ratio was 1.39. With ACACGCCCGT the switch fluorescence ratio was 1.12. AACACTACGC gave a switch fluorescence ratio of 1.47. TACCAACTGG showed a switch fluorescence ratio of 1. In the case of CTACACTCGC, the switch fluorescence ratio is reported as 1.09. For AAATCGTTTG, the switch fluorescence ratio was 1.02. Work on TAGGGGTAT yielded a switch fluorescence ratio of 1.01. Work on CGGTCGAGT yielded a switch fluorescence ratio of 1. Work on TGCAGGCCGT yielded a switch fluorescence ratio of 0.978. Work on ACCAGCCCGG yielded a switch fluorescence ratio of 0.974. AGGAGATCTC gave a switch fluorescence ratio of 1.06. CCGATATAGA gave a switch fluorescence ratio of 1.01. Work on GTTAGAGAGA yielded a switch fluorescence ratio of 1.04. Sequence CCGGTGGGGG has a switch fluorescence ratio of 1.04. GATGTATTGT showed a switch fluorescence ratio of 0.989. Sequence ATATCAGGCC has a switch fluorescence ratio of 0.961. Work on CGTCTTCGAG yielded a switch fluorescence ratio of 0.991. Sequence ATAACACCAA has a switch fluorescence ratio of 1.03. For ATCGCACATT, the switch fluorescence ratio was 1.11. Sequence ATGCAGTGAA has a switch fluorescence ratio of 1.01. For CAGGGATGT, the switch fluorescence ratio was 0.975. For TCTAGACGTG, the switch fluorescence ratio was 0.976. With GTTCGGCAAC the switch fluorescence ratio was 1.17. Sequence AGCACAACGG has a switch fluorescence ratio of 1.05. GGTATGAGCC was tested, and the switch fluorescence ratio was 1.02. With TTTATACTCG the switch fluorescence ratio was 1.03. ACGATCCCGA gave a switch fluorescence ratio of 1.01. Sequence GGAATCATGA has a switch fluorescence ratio of 0.968. Work on GATCGGTGTG yielded a switch fluorescence ratio of 0.976. ATTGTTAGGT gave a switch fluorescence ratio of 1.02. In the case of AGCGGTTGCG, the switch fluorescence ratio is reported as 1.07. For CTGTAAAATC, the switch fluorescence ratio was 1.66. For TCATAGACTT, the switch fluorescence ratio was 1.04. AGGTGCGTAA showed a switch fluorescence ratio of 1.01. Sequence GTGTAACGGT has a switch fluorescence ratio of 0.995. GAGTCGGGTG gave a switch fluorescence ratio of 1.04. AAAGTCTCTT was tested, and the switch fluorescence ratio was 1. With CTTAGAGGTG the switch fluorescence ratio was 1.05. GCGTGAAGAC gave a switch fluorescence ratio of 1.09. CGGGCCAAAA showed a switch fluorescence ratio of 1.08. In the case of GATGCGAGCT, the switch fluorescence ratio is reported as 0.955. With AAATGTAACT the switch fluorescence ratio was 1.05. In the case of CTAAGATTGC, the switch fluorescence ratio is reported as 1.12. Work on TTAGAGATCG yielded a switch fluorescence ratio of 1.04. In the case of CGTATTATT, the switch fluorescence ratio is reported as 0.985. TAGTGGCCTC showed a switch fluorescence ratio of 1.02. Work on TTCAGCCTTG yielded a switch fluorescence ratio of 0.965. Sequence AATGCTTCGT has a switch fluorescence ratio of 1.03. TGGTTATGTG was tested, and the switch fluorescence ratio was 0.989. CTCTTGACAG showed a switch fluorescence ratio of 0.97. Work on CACGTTTCGG yielded a switch fluorescence ratio of 1.03. In the case of GCGCTAAGTA, the switch fluorescence ratio is reported as 1.01. For ATTATCATCT, the switch fluorescence ratio was 1.01. AGGAGTGGCA showed a switch fluorescence ratio of 1.05. TAGTATATCT showed a switch fluorescence ratio of 0.992. GCGCTTTAGC was tested, and the switch fluorescence ratio was 1.03. TTACGTCACT showed a switch fluorescence ratio of 1.61. Work on TCGTCGATGG yielded a switch fluorescence ratio of 1.02. In the case of CTACAGTGTT, the switch fluorescence ratio is reported as 0.987. TTAACGCATT was tested, and the switch fluorescence ratio was 1.16. CGTCGAGGCC was tested, and the switch fluorescence ratio was 1.08. CTCTTGGCCG was tested, and the switch fluorescence ratio was 0.936. AGATAGGTA gave a switch fluorescence ratio of 0.978. ATCGGAGTCA gave a switch fluorescence ratio of 0.988. TAGGGCGTTT showed a switch fluorescence ratio of 0.99. GATAGAGTTT was tested, and the switch fluorescence ratio was 1. With GAAGATTAA the switch fluorescence ratio was 1.02. AGCCGGGATT gave a switch fluorescence ratio of 0.98. GTCGCATCAC showed a switch fluorescence ratio of 1.89. GAAGTGTTAT gave a switch fluorescence ratio of 1.01. For ATCAGATGTT, the switch fluorescence ratio was 1.05. Work on CACTTAGATA yielded a switch fluorescence ratio of 1.02. ATTGCTACGG was tested, and the switch fluorescence ratio was 1.05. For TGAGCTGTCG, the switch fluorescence ratio was 0.97. Work on AACCACGCGG yielded a switch fluorescence ratio of 1.02. Work on CAATAAGCCA yielded a switch fluorescence ratio of 1.01. In the case of TACTCCGCCA, the switch fluorescence ratio is reported as 2.91. CCATTCGTCA showed a switch fluorescence ratio of 1.08. CGAGGTGTTT gave a switch fluorescence ratio of 1.03. CGGCCACTTC was tested, and the switch fluorescence ratio was 0.977. Work on CGATGGTAGC yielded a switch fluorescence ratio of 1.03. With GGGGGACGAT the switch fluorescence ratio was 1.03. Work on TGGTTCTCAC yielded a switch fluorescence ratio of 1.02. Work on TCTGGAGTAC yielded a switch fluorescence ratio of 0.99. In the case of GAGTTATCTC, the switch fluorescence ratio is reported as 0.99. In the case of GGGATGGCTA, the switch fluorescence ratio is reported as 0.968. Sequence CGGTGAAAGG has a switch fluorescence ratio of 0.994. Sequence TTTGCTACCG has a switch fluorescence ratio of 0.962. Sequence TCGCACCCCC has a switch fluorescence ratio of 2.98. For GGGTGTCTAT, the switch fluorescence ratio was 0.943. AAGACCTATG showed a switch fluorescence ratio of 0.968. Work on TAGCCTACGA yielded a switch fluorescence ratio of 1.1. GGTAAAGCGA was tested, and the switch fluorescence ratio was 1.03. AATACATGAA was tested, and the switch fluorescence ratio was 0.962. Work on ACATATGATG yielded a switch fluorescence ratio of 0.951. With TAAGCATAGC the switch fluorescence ratio was 1.04. GACAAAAACG showed a switch fluorescence ratio of 1.02. CAGGTATCGT showed a switch fluorescence ratio of 1. CTGCGATGAA gave a switch fluorescence ratio of 1.02. For CCAACCGTCG, the switch fluorescence ratio was 1. ATCAACCCCT showed a switch fluorescence ratio of 1.09. Sequence CGTACGTATC has a switch fluorescence ratio of 1.08. CATTTGGTTG gave a switch fluorescence ratio of 0.959. With CAGGAATTTC the switch fluorescence ratio was 1.05. Work on AGGATGTGCG yielded a switch fluorescence ratio of 0.972. For GTGTGACTTT, the switch fluorescence ratio was 0.998. TCCAAGGATT showed a switch fluorescence ratio of 0.964. With CAGGCTTGAA the switch fluorescence ratio was 0.987. In the case of AATAACGTCA, the switch fluorescence ratio is reported as 1.1. For CACAGAGACT, the switch fluorescence ratio was 1.01. For TGGGTTTCA, the switch fluorescence ratio was 1.01. For GCGGCAGAA, the switch fluorescence ratio was 1.01. Work on ATAAGGTTTG yielded a switch fluorescence ratio of 0.988. With CGCCCAGCTG the switch fluorescence ratio was 1.7. In the case of AGTGATCTTC, the switch fluorescence ratio is reported as 1.02. ACGAATGTAC showed a switch fluorescence ratio of 1.05. Sequence ATAGGTGCT has a switch fluorescence ratio of 1.07. In the case of TGGAGGGCAA, the switch fluorescence ratio is reported as 1.03. CCCGTCAGTG gave a switch fluorescence ratio of 1.32. Work on CGGATGGGTA yielded a switch fluorescence ratio of 1.01.
